In ChEMBL document CHEMBL4888484, “Replenishing the malaria drug discovery pipeline: Screening and hit evaluation of the MMV Hit Generation Library 1 (HGL1) against asexual blood stage Plasmodium falciparum ,using a nano luciferase reporter read-out” (2022):
“And” between values parts separate entries of the source, which are not always exact repeats. Equal values may be shown once. The whole screen tested about 150,000 compounds, of which about 540 (0.36%) showed an effect of 50% or more. This is one part of the list.

Tested on: Plasmodium falciparum
Experiment: Primary screen in NF54 nanoGlo assay, in single point, at 2uM, 72h; a lower Z score goes with more inhibition
Format: functional, Erythrocyte
Settings: timepoint 72 hour

Compound	% Inhibition	Z score	% Inhibition (2 µM)	Z score (2 µM)
Cc1ccc(-n2c(=O)c3sccc3n(CC(=O)Nc3nc4ccccc4s3)c2=O)cc1C	2%	-0.22		
O=S(=O)(NCCn1cc(-c2ccoc2)cn1)N1CCOCC1	-4%	0.68		
CCOC(=O)c1sc2nc(-c3ccc(C)c(C)c3)c(NCc3ccc(C)cc3)n2c1C	5%	-0.6		
Cc1cc(S(=O)(=O)O)c(N)cc1C(C)C			-11% and -3%	1.24 and 0.45
COc1ncc(NC(=O)C2CCCC2)cn1	-7%	1.31		
O=C(Nc1ccc(/C=C\c2ccccc2)cc1)c1cccc(C(=O)Nc2ccc(/C=C\c3ccccc3)cc2)c1	-3%	0.49		
CCCNC(=O)OC[C@H]1CCCCN1Cc1cn(C(C)C)nc1C	-4%	0.65		
CCOc1ccc(CC(=O)N2Cc3cncnc3C2)cc1	-9%	1.48		
CC(C)c1ccc([C@H](C(=O)Nc2ccc(N(C)C)cc2)N(Cc2ccc(F)cc2)C(=O)CN2C(=O)C(=O)c3ccccc32)cc1	32%	-3.6		
Cc1cc(C)c(S(=O)(=O)Nc2ccc(C)cc2-c2nc3ccccc3[nH]c2=O)c(C)c1	-2%	0.29		
Cc1noc(C)c1CC(=O)NC1CCOCC1	4%	-0.62		
Fc1ccccc1Oc1nc(N2CCOCC2)nc2c1CN(Cc1ccc(C(F)(F)F)cc1)CC2	2%	-0.23		
COc1cc(F)cc(CNC(=O)NCc2csc(N(C)C)n2)c1	13%	-1.55		
CN(C(=O)CCCOc1cccnc1)c1cc(F)ccc1F	-13%	1.11		
Cc1nc(-c2cccc(F)c2)nc(N2CCN(C(=O)Nc3ccc(C(F)(F)F)cc3)CC2)c1Cc1ccccc1	-6%	0.97		
CC[C@]1(CO)CCCN(c2ccc(Cn3nc(C)cc3C)cn2)C1	-19%	3.39		
O=C(C(c1ccccc1)c1ccccc1)N1Cc2cnc(N3CCOCC3)nc2C1	-5%	1.02		
COc1ccc(Oc2c(CN(C[C@H]3CCCO3)C(=O)c3ccc(Cl)cc3)c(-c3ccccc3)nn2C)cc1	-12%	1.17		
CCn1nccc1-c1ccc(C(=O)C2CCC2)cc1	-7%	0.76		
N#Cc1cccc(S(=O)(=O)Nc2cccc3c2CCNC3)c1	3%	-0.61		
CN(Cc1ccoc1)C(=O)[C@@H]1CCC(=O)NC(=O)N1	11%	-1.38		

Compound	% Inhibition	Z score	% Inhibition (2 µM)	Z score (2 µM)
O=C(c1ccccc1-c1ccccc1)N1C[C@H]2C[C@H](O)[C@@H](O)C[C@H]2C1	2%	-0.52		
O=C(c1ccc2[nH]nnc2c1)N1CCn2nc([C@@H](O)C3CC3)cc2C1	-10%	0.97		
O=C(C1CC=CCC1)N1CCC2CCCCC21 (stereo unspecified)	-8%	1.07		
c1ccc2c(c1)CCN(c1nnc(C3CC3)n1C[C@H]1CCOC1)C2	-14%	2.08		
C#CCCC1(CCC(=O)N2CCN(C3CCC3)CC2)N=N1	-14%	1.73		
CCN1CCN(C(=O)NCc2cc(-c3ccccn3)no2)CC1=O	-10%	1.82		
Fc1ccc(-c2cnc3n2C[C@H](CNCc2ccccn2)OC3)cc1	11%	-1.22		
Cc1cc(-c2c(-c3ccccc3)ncn2CCN2CCCOC2=O)[nH]n1	-10%	0.95		
CN(C)c1ccc(-c2ccc(C(=O)NCCN3CCCC3=O)cc2)nn1	-19%	3.54		
O=C(CCN1C(=O)CCC1=O)Nc1nc(C(F)(F)F)cs1	-11%	1.83		
Cc1cc(N2CCN(C(=O)Nc3ccc4ccccc4c3)CC2)nc(N2CCOCC2)n1	-8%	1.16		
Cc1n[nH]c(-c2ccc(S(=O)(=O)N3CCN(C)CC3)s2)c1C	-9%	1.42		
Cc1cc2c(cc1S(=O)(=O)NCc1ccncc1)NC(=O)CO2	-6%	0.69		
Cn1cc(C(=O)Nc2cccc(OCC(F)F)n2)ccc1=O	-11%	1.77		
CCN(CC)C(=O)c1ccc(S(N)(=O)=O)cn1	-9%	1.47		
CC1(C)[C@@H](NS(=O)(=O)Cc2ccon2)[C@@H]1c1ccccc1	-15%	1.93		
COc1ccccc1N1CC(=O)N=C1Nc1nc(C)cc(C)n1	-1%	0.16		
O=S(=O)(NCc1ccccc1)c1ccc(-c2cc(C(F)(F)F)on2)o1	-6%	0.99		
COC1CCCCCC1NC(=O)NC(C)CC(O)c1ccco1 (stereo unspecified)	0%	0.03		
Cc1cnc([C@H](C)N2CCC(S(=O)(=O)N3CCCC3)CC2)o1	-14%	2.67		
C#CCNC(=O)CNC(=O)c1ccc(F)c(Br)c1	-4%	0.54		

Compound	% Inhibition	Z score	% Inhibition (2 µM)	Z score (2 µM)
NC(=O)CN1CCCN(C(=O)Nc2nc(C3CC3)cs2)CC1	-7%	0.62		
O=C(Nc1nc2c(s1)CN(Cc1ccccc1)CC2)c1cccs1	-1%	0.15		
CC(C)S(=O)(=O)N(C)C(=O)c1cccc(COc2ccccc2C#N)c1	-3%	0.43		
CCN(C[C@H]1CCCCO1)S(=O)(=O)c1ccc(-c2ccn[nH]2)o1	1%	-0.2		
C[C@]1(CNC(=O)C2CC=CC2)CCCO1	-7%	1.38		
CCN(CC(=O)NC(=O)NC)C1CN(C(=O)OC(C)(C)C)C1	-12%	1.2		
CC12C=CC(C3C(=O)N(c4ccccc4F)C(=O)[C@H]31)C21CC1 (stereo partly specified)	-10%	0.9		
COCCN1C[C@]2(CCCN(C(=O)Cc3cccc(O)c3)C2)CCC1=O	-10%	1.11		
CCC(=O)NCc1nc2c(n1CC)CN(S(=O)(=O)c1ccc(F)c(Cl)c1)CC2	-6%	0.82		
Cc1cc(N)nc(Nc2ccc(Nc3ccccc3)cc2)n1	29%	-8.92		
COc1ccccc1CNC(=O)c1ccc(S(=O)(=O)N2CCCCCC2)s1	-9%	1.18		
COc1ccc(Oc2nc(N3CCCC3)c(Cl)c3c2N(C2CCCCC2)CCS3(=O)=O)cc1	3%	-0.55		
CCCCCC(=O)N1CCN(c2cc(Oc3ccc(F)c(F)c3)ncn2)C[C@@H]1C	0%	-0.02		
COc1ccc(CN2CCC(N3CC(O)=C(c4nc(-c5ccccc5)cs4)C3=N)CC2)cc1	-4%	0.57		
CC(=O)N(CCC(=O)N1CCOC[C@@H]1C)Cc1ccccc1	-14%	1.79		
CCC(CC)NC(=O)[C@H]1CCC[C@H]1NC(=O)c1ccc(OC)cc1	-8%	1.04		
O=C(CCOc1cccc(F)c1)N1CCC(C(=O)N2CCCC2)CC1	-6%	0.87		
CN1CCC(N(C)[C@H]2CC(=O)N(c3ccc(Br)cc3)C2=O)CC1	-10%	1.05		
C=CCn1nc(C(=O)O)c2c1CC[C@H](N(C)Cc1ccncc1C)C2	-15%	1.51		
CC[C@@]1(C(=O)NCCN2CCOCC2)CCCCC(=O)N1	5%	-0.52		
COC(=O)c1ncn2c1CO[C@H](c1ccc(OC)cc1)C2	-5%	0.53		

Compound	% Inhibition	Z score	% Inhibition (2 µM)	Z score (2 µM)
CC(C)c1ccc(C(=O)N2CC[C@H](N3CCN(C)CC3)[C@H](CCC(=O)O)C2)cc1	-1%	0.17		
COc1cc2c(cc1OC)CN(C(=O)c1ccc(N(C)C)nc1)CC2	9%	-1.33		
COc1cc2c(cc1OC)CN(S(=O)(=O)c1ccc3c(c1)CCCC3)CC2	6%	-0.76		
COC(=O)C1CCCCCCC1NC(=O)Nc1cccc(F)c1 (stereo unspecified)	2%	-0.46		
CCn1c(=O)c(N2CCC[C@H](C(=O)NCCc3c[nH]c4ccccc34)C2)nc2ccccc21	35%	-0.82		
C[C@@H](Cn1ncc2ccccc21)C(=O)Nc1n[nH]c2cc(F)ccc12	-6%	1.12		
COCCn1nc(C)c(Br)c1C	-1%	0.09		
CN1CCN(Cc2cc(CN3CCCCC3)cs2)C[C@H]1c1ccccc1	1%	-0.11		
O=C(CN1C(=O)c2ccccc2C1=O)OCC(=O)N1CCCCC1	16%	-1.83		
CC(NC(=O)c1ccc2c(c1)OCO2)C1CC2CCC1C2 (stereo unspecified)	-13%	1.66		
CC(C)c1nnnn1[C@H]1CO[C@H]2[C@@H]1OC[C@H]2O	2%	-0.27		
c1ccc2sc([C@H]3CCN(C4CCC4)C3)nc2c1	-14%	2.12		
O=C(NCCN1Cc2cc(Cl)ccc2OCC1=O)c1ccc(=O)[nH]c1	-17%	2.96		
CC[C@@H](C(=O)N1CCN(c2nc(CN3CCN(Cc4ccccc4)CC3)cc(=O)[nH]2)CC1)c1ccccc1	-12%	2.12		
COC(=O)C[C@H](c1c(Cc2cc(F)c(F)cc2F)[nH][nH]c1=O)c1ccnn1C	-4%	0.56		
Cc1cnn(C)c1S(=O)(=O)NC1(Cc2ccccc2)CC1	-8%	1.19		
CCn1cnnc1CN(C)CC[C@H]1CC1(F)F	-3%	0.41		
CCn1nc(-c2ccc(C)o2)nc1CN1C(=O)CNC1=O	13%	-1.85		
CCOC1CC(NC2CC(c3ccc(F)cc3)C2)C12CCC2 (stereo unspecified)	85%	-15.92		
O=C(NC[C@H](OCCO)c1ccsc1)c1ccc2c(c1)OCO2	-7%	1.01		
